44 sequences from the supplement of paper PMC11417369 can be followed below.

± gives the standard deviation of the averaged measurements. This is one part of the list.

The experiment concerns PfAP2-G AP2 domain (GST-tagged). The experiment in a line: gcPBM binding intensity (ln(normalized median fluorescence intensity)); higher = stronger DNA binding. In a few lines: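 Binding of GST-tagged P. falciparum DNA-binding domains, expressed in E. coli and used at about 25 μg on average, was carried out for 1 h in 1× PBS containing 1% milk, 0.2 mg/ml BSA, 0.5% salmon testes DNA and 0.03% Triton X-100. The target was an Agilent 4 × 180k array of primer-extended double-stranded 36-bp intergenic genomic probes plus negative controls, read with Alexa488 anti-GST antibody at 488 nm. Binding intensity is the highest Masliner-normalised natural-log median intensity across replicate spots of either probe orientation.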
For “ATTATATATAAACACACACACATGCATGCACATATA [CACACA_site4237]”, the “gcPBM binding intensity (ln)” value came out at 10.06 ± 0.021.
The value for “CATAAACTTTATAACACACACTTATAAATATAAATA [CACACA_site6646]” was 10.1 ± 0.17; that for “TATCACATATTATGATGTACAAGGATTCTGACTAAT [XGTACX_site1196]” was 10.8 ± 0.4; that for “TTTATTTATCTGAACACATGCAGACAAATAACATAT [TGCATGCA_site929]” was 10.2 ± 0.19.
The value for “ATATATTTTGTTATGGTGCGTAAGAAATATATTCTT [GTGCAC_site9825]” was 10.2 ± 0.28; that for “GATCTTTAAATTTATTGTACATAAATGTATATGTTA [XGTACX_site1107]” was 10.9 ± 0.59; that for “GTTATAAAATATGGCACACAAAATGTAAGTAAATGA [CACACA_site1458]” was 10.5 ± 0.2.
The value for “TTGTTGATTGTTATTTATCATTAGATGTAAAATATG [CACACA_negctrl_site927]” was 10.2 ± 0.12; that for “TCTTTTAAACAGTACACACACACATATATATATATA [CACACA_site924]” was 11.2 ± 0.69.
For “AATATTTTTTTATAAACACACATATAAATAAATATA [CACACA_site7622]”, the “gcPBM binding intensity (ln)” value stood at 9.945 ± 0.021.
For the sequence “TATATATTATAAAATAGTACACAGAATTTAAATATA [XGTACX_site100]”, the “gcPBM binding intensity (ln)” value worked out at 11.4 ± 0.83.
The value for “TATATATAGAAACACACACACATATATATATATTTT [CACACA_site2540]” was 9.83 ± 0.13; that for “ATTGTGCACTTATATGCACACATTTTAGTTTTTTTT [CACACA_site2028]” was 10.4 ± 0.34; that for “ATATCTATAATAAACACACACATATACCTATAGGTA [CACACA_site7596]” was 9.85 ± 0.057.
The value for “GGGCATATAATATAAAGTACAGGACTATAAAAATAT [XGTACX_site4481]” was 11.2 ± 0.8.
The value for “TATTATATGTATTGCACACCTTCAACAACTACTTCT [CACACA_site655]” was 10.29 ± 0.092.
As for “TATACATTTTTATAAAGTACACAAAAATAAATATAA [XGTACX_site1647]”, the “gcPBM binding intensity (ln)” value was 11.5 ± 0.95.
The value for “ATTAAATATATGATGTGTACATATTCGTGTATGTTT [XGTACX_site2141]” was 11.4 ± 0.71.
The value for “AAACAGAATACATATACACACATACAAAAAAGTGCA [CACACA_site8235]” was 10.2 ± 0.3; that for “AAAATAAATTTTTATGTTATATATACAATTTCTCTA [CACACA_negctrl_site1760]” was 9.44 ± 0.17.
The value for “AATGCTATCTTCTTATTTTTCATACACAACATGAAC [CACACA_negctrl_site1809]” was 10.2 ± 0.11; that for “TATAATATTTATATAACACACATATATATTTATTTA [CACACA_site280]” was 9.73 ± 0.11; that for “CATAGAATAATTTATTGTACGTGCATGCTATTTTTT [XGTACX_site8984]” was 11.3 ± 0.8.
Turning to “TTATGAAATAGAATAACACACATATTTATATATGTG [CACACA_site2050]”, the “gcPBM binding intensity (ln)” value was 10 ± 0.13.
The value for “ATATATATATGTCAAAGTACTAAAAATATATACATA [XGTACX_site3397]” was 10.7 ± 0.37.
The value for “TATTTTTTTAAAAATACACACATAAAATCATGAAAA [CACACA_site1085]” was 10.18 ± 0.099.
The value for “TTTTTTTATATTTTTAGTACACATTGGTATATATAT [XGTACX_site4114]” was 11.4 ± 0.83; that for “GTATTTTGCATAAATGCATGTAAATATATACCTACC [TGCATGCA_site957]” was 10.1 ± 0.23.
For “TATTTGGGTATTTTTACACACATTAAAATATATATA [CACACA_site5800]”, the “gcPBM binding intensity (ln)” value was found to be 9.96 ± 0.23.
On to “TTTTCTTTCTTGTTTCGTATATTATAAAAAAAAAAG [CACACA_negctrl_site854]”, for which the “gcPBM binding intensity (ln)” value amounted to 10.2 ± 0.4.
In the case of “TTAATATTTGTTCTGATCCTTTTATTCAACTTTTTT [CACACA_negctrl_site536]”, the “gcPBM binding intensity (ln)” value stood at 9.955 ± 0.007.
The value for “TGGTAATACCCATACACACACACATACACATATATA [CACACA_site8877]” was 10.3 ± 0.2; that for CAGTTGTTAATTTGTGTGCACCAAATATTATACATA was 10.7 ± 0.55; that for “ACATATGAATATAATACACACTTGTATTCTTAATAT [CACACA_site5085]” was 10 ± 0.085.
As for “ATAATTCCATAAAATAGACACACGAATGTATAATAT [CACACA_site477]”, the “gcPBM binding intensity (ln)” value amounted to 10.
The value for “TATTTGTAAAGACATGCATGGTACTTTTAAAACATA [TGCATGCA_site7]” was 11 ± 0.73; that for “TGTAGATAAAATAAACGTACGTATTGATTTTTTTCA [XGTACX_site1610]” was 11.2 ± 0.52; that for “TCTAATTTAAAATACACACACATATCTATAATATAT [CACACA_site7029]” was 9.96 ± 0.12.
The value for “GTATAAAAATTTAGGAGTACAATATATTTATAATAT [XGTACX_site2127]” was 11.6 ± 1.1.
The value for “TTTTTGTATTCTCCGGACTACATTATGTTGTAAATG [CACACA_negctrl_site691]” was 10.4 ± 0.25; that for “GTAATAAAAAATTAATGTACTTTATATAATATATTA [XGTACX_site5935]” was 11 ± 0.81.
Take “ATATATATATATGTATGTACGTATGTATGTATGAAT [XGTACX_site4857]”: the “gcPBM binding intensity (ln)” value was found to be 11.3 ± 0.84.
The value for “GGTACATACAAACACACACACAAAAAAAAAAAAATA [CACACA_site1577]” was 10.2 ± 0.45.
The value for “TAATATATAAAAAGATGTACTTTTGCAAGTTCCTTT [XGTACX_site8519]” was 11.1 ± 0.78.
